Experimental data reported in the supplement of paper PMC8728848.
The list shows a part of the results.

Key:
Test in all cases: glycan array binding signal (z-score within array); higher = stronger binding
Settings in all cases: glycan notation: IUPAC condensed, linker removed
[1] = target: GlcNAc(a1-3)Gal(b1-4)GlcNAc
Method in brief: (§1)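 Glycan array data came from 3228 arrays in the Consortium for Functional Glycomics database, and only arrays with an available protein sequence were kept. Glycan names were put into IUPAC-condensed notation, and columns mapping to the same glycan were averaged. The binding signal is a within-array Z-score, averaged across arrays of one protein sequence run at different concentrations or buffers and across linkers. A negative Z-score can be read as non-binding.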

[2] = target: GlcNAc(a1-6)Gal(b1-4)GlcNAc
Method in brief: as §1

[3] = target: GlcNAc(b1-2)Gal(b1-3)GalNAc
Method in brief: as §1

[4] = target: GlcNAc(b1-2)Man(a1-3)[GlcNAc(b1-2)Man(a1-6)]Man(b1-4)GlcNAc(b1-4)GlcNAc
Method in brief: as §1

[5] = target: GlcNAc(b1-3)Gal
Method in brief: as §1

[6] = target: GlcNAc(b1-3)Gal(b1-3)GalNAc
Method in brief: as §1

[7] = target: GlcNAc(b1-3)Gal(b1-4)Glc
Method in brief: as §1

[8] = target: GlcNAc(b1-3)Gal(b1-4)GlcNAc
Method in brief: as §1

[9] = target: GlcNAc(b1-3)Gal(b1-4)GlcNAc(b1-3)Gal(b1-4)GlcNAc
Method in brief: as §1

[10] = target: GlcNAc(b1-3)GalNAc
Method in brief: as §1

[11] = target: GlcNAc(b1-3)[GlcNAc(b1-6)]Gal(b1-4)GlcNAc
Method in brief: as §1

[12] = target: GlcNAc(b1-3)[GlcNAc(b1-6)]GalNAc
Method in brief: as §1

[13] = target: GlcNAc(b1-3)[GlcNAc(b1-6)]GlcNAc(b1-4)GlcNAc
Method in brief: as §1

[14] = target: GlcNAc(b1-4)Gal(b1-4)GlcNAc
Method in brief: as §1

[15] = target: GlcNAc(b1-4)GlcNAc(b1-4)GlcNAc
Method in brief: as §1

[16] = target: GlcNAc(b1-4)GlcNAc(b1-4)GlcNAc(b1-4)GlcNAc(b1-4)GlcNAc
Method in brief: as §1

[17] = target: GlcNAc(b1-4)GlcNAc(b1-4)GlcNAc(b1-4)GlcNAc(b1-4)GlcNAc(b1-4)GlcNAc
Method in brief: as §1

[18] = target: GlcNAc(b1-4)[GlcNAc(b1-6)]GalNAc
Method in brief: as §1

[19] = target: GlcNAc(b1-6)Gal(b1-4)GlcNAc
Method in brief: as §1

[20] = target: GlcNAc(b1-6)GalNAc
Method in brief: as §1

[21] = target: Kdn(a2-3)Gal(b1-3)GlcNAc
Method in brief: as §1

[22] = target: Kdn(a2-3)Gal(b1-4)GlcNAc
Method in brief: as §1

[23] = target: Man(a1-2)Man(a1-2)Man(a1-3)Man
Method in brief: as §1

[24] = target: Man(a1-2)Man(a1-2)Man(a1-6)[Man(a1-3)]Man
Method in brief: as §1

[25] = target: Man(a1-2)Man(a1-3)Man
Method in brief: as §1

[26] = target: Man(a1-2)Man(a1-3)[Man(a1-2)Man(a1-6)]Man
Method in brief: as §1

[27] = target: Man(a1-2)Man(a1-3)[Man(a1-2)Man(a1-6)]Man(a1-6)[Man(a1-2)Man(a1-2)Man(a1-3)]Man(b1-4)GlcNAc(b1-4)GlcNAc
Method in brief: as §1

[28] = target: Man(a1-2)Man(a1-3)[Man(a1-6)]Man(a1-6)[Man(a1-2)Man(a1-3)]Man(b1-4)GlcNAc(b1-4)GlcNAc
Method in brief: as §1

[29] = target: Man(a1-2)Man(a1-6)[Man(a1-3)]Man(a1-6)[Man(a1-2)Man(a1-2)Man(a1-3)]Man(b1-4)GlcNAc(b1-4)GlcNAc
Method in brief: as §1

[30] = target: Man(a1-3)[Man(a1-6)]Man
Method in brief: as §1

[31] = target: Man(a1-3)[Man(a1-6)]Man(a1-6)[Man(a1-2)Man(a1-3)]Man(b1-4)GlcNAc(b1-4)GlcNAc
Method in brief: as §1

[32] = target: Man(a1-3)[Man(a1-6)]Man(a1-6)[Man(a1-3)]Man(b1-4)GlcNAc(b1-4)GlcNAc
Method in brief: as §1

[33] = target: Man(a1-3)[Man(a1-6)]Man(b1-4)GlcNAc(b1-4)GlcNAc
Method in brief: as §1

[34] = target: Man(b1-4)GlcNAc
Method in brief: as §1

[35] = target: Neu5Ac(a2-3)Gal
Method in brief: as §1

[36] = target: Neu5Ac(a2-3)Gal(b1-3)GalNAc
Method in brief: as §1

[37] = target: Neu5Ac(a2-3)Gal(b1-3)GalNAc(b1-3)Gal(a1-4)Gal(b1-4)Glc
Method in brief: as §1

[38] = target: Neu5Ac(a2-3)Gal(b1-3)GalNAc(b1-3)Gal(b1-4)GlcNAc
Method in brief: as §1

[39] = target: Neu5Ac(a2-3)Gal(b1-3)GalNAc(b1-4)[Neu5Ac(a2-3)]Gal(b1-4)Glc
Method in brief: as §1

[40] = target: Neu5Ac(a2-3)Gal(b1-3)GalNAc6S
Method in brief: as §1

[41] = target: Neu5Ac(a2-3)Gal(b1-3)GlcNAc
Method in brief: as §1

[42] = target: Neu5Ac(a2-3)Gal(b1-3)GlcNAc6S
Method in brief: as §1

[43] = target: Neu5Ac(a2-3)Gal(b1-3)[Fuc(a1-4)]GlcNAc
Method in brief: as §1

[44] = target: Neu5Ac(a2-3)Gal(b1-3)[Fuc(a1-4)]GlcNAc(b1-3)Gal(b1-4)[Fuc(a1-3)]GlcNAc
Method in brief: as §1

[45] = target: Neu5Ac(a2-3)Gal(b1-3)[Neu5Ac(a2-3)Gal(b1-4)]GlcNAc
Method in brief: as §1

B1: DEC205 (Homo sapiens), O60449 (protein)
chain: MRTGWATPRRPAGLLMLLFWFFDLAEPSGRAANDPFTIVHGNTGKCIKPVYGWIVADDCDETEDKLWKWVSQHRLFHLHSQKCLGLDITKSVNELRMFSCDSSAMLWWKCEHHSLYGAARYRLALKDGHGTAISNASDVWKKGGSEESLCDQPYHEIYTRDGNSYGRPCEFPFLIDGTWHHDCILDEDHSGPWCATTLNYEYDRKWGICLKPENGCEDNWEKNEQFGSCYQFNTQTALSWKEAYVSCQNQGADLLSINSAAELTYLKEKEGIAKIFWIGLNQLYSARGWEWSDHKPLNFLNWDPDRPSAPTIGGSSCARMDAESGLWQSFSCEAQLPYVCRKPLNNTVELTDVWTYSDTRCDAGWLPNNGFCYLLVNESNSWDKAHAKCKAFSSDLISIHSLADVEVVVTKLHNEDIKEEVWIGLKNINIPTLFQWSDGTEVTLTYWDENEPNVPYNKTPNCVSYLGELGQWKVQSCEEKLKYVCKRKGEKLNDASSDKMCPPDEGWKRHGETCYKIYEDEVPFGTNCNLTITSRFEQEYLNDLMKKYDKSLRKYFWTGLRDVDSCGEYNWATVGGRRRAVTFSNWNFLEPASPGGCVAMSTGKSVGKWEVKDCRSFKALSICKKMSGPLGPEEASPKPDDPCPEGWQSFPASLSCYKVFHAERIVRKRNWEEAERFCQALGAHLSSFSHVDEIKEFLHFLTDQFSGQHWLWIGLNKRSPDLQGSWQWSDRTPVSTIIMPNEFQQDYDIRDCAAVKVFHRPWRRGWHFYDDREFIYLRPFACDTKLEWVCQIPKGRTPKTPDWYNPDRAGIHGPPLIIEGSEYWFVADLHLNYEEAVLYCASNHSFLATITSFVGLKAIKNKIANISGDGQKWWIRISEWPIDDHFTYSRYPWHRFPVTFGEECLYMSAKTWLIDLGKPTDCSTKLPFICEKYNVSSLEKYSPDSAAKVQCSEQWIPFQNKCFLKIKPVSLTFSQASDTCHSYGGTLPSVLSQIEQDFITSLLPDMEATLWIGLRWTAYEKINKWTDNRELTYSNFHPLLVSGRLRIPENFFEEESRYHCALILNLQKSPFTGTWNFTSCSERHFVSLCQKYSEVKSRQTLQNASETVKYLNNLYKIIPKTLTWHSAKRECLKSNMQLVSITDPYQQAFLSVQALLHNSSLWIGLFSQDDELNFGWSDGKRLHFSRWAETNGQLEDCVVLDTDGFWKTVDCNDNQPGAICYYSGNETEKEVKPVDSVKCPSPVLNTPWIPFQNCCYNFIITKNRHMATTQDEVHTKCQKLNPKSHILSIRDEKENNFVLEQLLYFNYMASWVMLGITYRNNSLMWFDKTPLSYTHWRAGRPTIKNEKFLAGLSTDGFWDIQTFKVIEEAVYFHQHSILACKIEMVDYKEEHNTTLPQFMPYEDGIYSVIQKKVTWYEALNMCSQSGGHLASVHNQNGQLFLEDIVKRDGFPLWVGLSSHDGSESSFEWSDGSTFDYIPWKGQTSPGNCVLLDPKGTWKHEKCNSVKDGAICYKPTKSKKLSRLTYSSRCPAAKENGSRWIQYKGHCYKSDQALHSFSEAKKLCSKHDHSATIVSIKDEDENKFVSRLMRENNNITMRVWLGLSQHSVDQSWSWLDGSEVTFVKWENKSKSGVGRCSMLIASNETWKKVECEHGFGRVVCKVPLGPDYTAIAIIVATLSILVLMGGLIWFLFQRHRLHLAGFSSVRYAQGVNEDEIMLPSFHD
glycan array binding signal (z-score) [1]: -0.174
glycan array binding signal (z-score) [2]: -0.167
glycan array binding signal (z-score) [3]: -0.398
glycan array binding signal (z-score) [4]: -0.232
glycan array binding signal (z-score) [5]: -0.22
glycan array binding signal (z-score) [6]: -0.229
glycan array binding signal (z-score) [7]: -0.419
glycan array binding signal (z-score) [8]: -0.276
glycan array binding signal (z-score) [9]: 0.039
glycan array binding signal (z-score) [10]: -0.307
glycan array binding signal (z-score) [11]: -0.35
glycan array binding signal (z-score) [12]: -0.145
glycan array binding signal (z-score) [13]: -0.094
glycan array binding signal (z-score) [14]: -0.173
glycan array binding signal (z-score) [15]: 3.79
glycan array binding signal (z-score) [16]: -0.327
glycan array binding signal (z-score) [17]: -0.135
glycan array binding signal (z-score) [18]: -0.219
glycan array binding signal (z-score) [19]: -0.071
glycan array binding signal (z-score) [20]: -0.308
glycan array binding signal (z-score) [21]: 0.019
glycan array binding signal (z-score) [22]: 1.75
glycan array binding signal (z-score) [23]: -0.119
glycan array binding signal (z-score) [24]: -0.311
glycan array binding signal (z-score) [25]: -0.327
glycan array binding signal (z-score) [26]: -0.072
glycan array binding signal (z-score) [27]: 0.357
glycan array binding signal (z-score) [28]: -0.041
glycan array binding signal (z-score) [29]: -0.18
glycan array binding signal (z-score) [30]: -0.18
glycan array binding signal (z-score) [31]: -0.327
glycan array binding signal (z-score) [32]: -0.154
glycan array binding signal (z-score) [33]: -0.47
glycan array binding signal (z-score) [34]: -0.273
glycan array binding signal (z-score) [35]: -0.168
glycan array binding signal (z-score) [36]: -0.274
glycan array binding signal (z-score) [37]: -0.177
glycan array binding signal (z-score) [38]: 0.121
glycan array binding signal (z-score) [39]: -0.242
glycan array binding signal (z-score) [40]: -0.225
glycan array binding signal (z-score) [41]: -0.209
glycan array binding signal (z-score) [42]: -0.051
glycan array binding signal (z-score) [43]: -0.003
glycan array binding signal (z-score) [44]: -0.019
glycan array binding signal (z-score) [45]: -0.395
